Measurements as given in PubChem BioAssay AID504706 (National Center for Advancing Translational Sciences (NCATS), 2011).
The campaign covered roughly 320,000 compounds. About 200 (0.062%) were called active. The inconclusive results got no clear call from the source; some entries with a clear call stand among them for comparison. Calls come from the whole dose curve; as a rule, active = well fitted activation curve with a large enough effect; inconclusive = small, poorly fitted or top-dose-only effect; inactive = no such curve, though single readings can be large or run the other way. No potency is given beside an inconclusive call; the fits are too rough.

Assay: qHTS assay for re-activators of p53 using a Luc reporter; note: nearly all actives have a fitted effect of over 45% in size
Details: H1299 p53-A138V BP100-luciferase reporter, luminescence, 24 h; series mostly up to 92.2 µM
How it was run: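 p53-null H1299 cells stably carrying temperature-sensitive p53-A138V and a BP100-luciferase reporter were pinned with compounds (4-point, 1:5 series) and held 24 hrs at 37 deg C. Luminescence was read 10 min after detection reagent.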
Potency is the fitted concentration of half-maximal effect; tags give direction and shape of the fitted curve.

SMILES | Potency
COc1ccccc1N(Cc1ccccc1)S(=O)(=O)c1cccc(C(=O)Nc2cc(C)ccn2)c1 | inactive
O=C(Nc1nc2nccc(-c3ccccc3)n2n1)c1ccccc1 | inactive
CC1CCN(S(=O)(=O)c2ccc(C(=O)Nc3ccccc3-c3nc4ccccc4[nH]3)cc2)CC1 | inactive
Cc1ccc2oc(-c3cccc(NC(=S)NC(=O)c4cccs4)c3)nc2c1 | inconclusive [activator, partial curve, poor fit]
Cc1oc(-c2ccccc2)cc1C(=O)Nc1cccc2ccccc12 | inconclusive [activator, partial curve, poor fit]
CCC(C)C(=O)Nc1nnc(CCc2ccccc2)s1 (stereo not drawn) | inconclusive [activator, partial curve, poor fit]
COC(=O)c1ccc(NC(=O)C2CCN(C(=O)Nc3ccccc3)CC2)cc1 | inconclusive [activator, partial curve, poor fit]
Cc1ccc(S(=O)(=O)Nc2cc(C(=O)O)ccc2N2CCCCC2)cc1 | inconclusive [activator, partial curve, poor fit]
COc1cc(C2C(=O)c3ccccc3C2=O)ccc1O | inactive
CCCN(CC(=O)Nc1ccc(Cl)cc1Cl)C(=O)/C=C/c1ccco1 | inconclusive [activator, partial curve, poor fit]
Cc1ccc2nc(-c3ccc(NC(=S)NC4CC(C)(C)NC(C)(C)C4)cc3)sc2c1 | inconclusive [activator, partial curve, poor fit]
CC1(C)CC(=O)C2=C(C1)Nc1ccccc1S2 | inactive
CC(=O)c1nn(-c2cccc(Br)c2)cc1C(=O)c1ccc(Cl)cc1 | inactive
NNC(=O)CSc1cccc2cccnc12 | inactive
S=c1[nH]nc(-c2ccncc2)n1/N=C/C(Cl)=C\c1ccccc1 | inconclusive [activator, single point]
O=C(O)CCc1ccc(-c2ccc(Br)cc2)n1-c1cccc(O)c1 | inconclusive [activator, partial curve, poor fit]
O=C(CN1CCN(S(=O)(=O)c2ccc(Cl)s2)CC1)N1CCOCC1 | inactive
O=C(NNC(=S)Nc1ccccc1Cl)c1ccccc1 | inconclusive [activator, full curve, poor fit]
C/C(=C1/SC(N2CCOCC2)=NC1=O)c1ccc(Cl)cc1 | inactive
O=C(Nc1cccc(C(F)(F)F)c1)c1c(O)c2ccccc2[nH]c1=O | inconclusive [activator, single point]
Cc1nc(CS(=O)(=O)c2ccccc2)cc(N2CCOCC2)n1 | inconclusive [activator, single point]
Cc1ccc(C(=O)c2c3ccccc3[n+]([O-])n2CCC(=O)O)cc1 | inconclusive [activator, partial curve, poor fit]

SMILES | Potency
O=[N+]([O-])c1cc(-c2nnc(-c3ccccc3)o2)ccc1Oc1ccc(Cl)cc1 | inconclusive [activator, full curve, poor fit]
S=C(Nc1ccccc1)c1nc2ccccc2s1 | inconclusive [activator, full curve, poor fit]
Cc1nc2cc(N3CCN(C)CC3)c(NC(=O)Cc3ccccc3)cc2c(=O)n1Cc1ccccc1 | inconclusive [activator, partial curve, poor fit]
Cc1nn(C)c(C)c1S(=O)(=O)N1CCC(C(=O)Nc2ccc3c(c2)OCCO3)CC1 | inconclusive [activator, partial curve, poor fit]
Cc1ccc(OCC(=O)c2c[nH]c3ccccc23)c([N+](=O)[O-])n1 | inconclusive [activator, single point]
Cc1ccc(N/C=C/C(=O)c2ccc(C)cc2)cc1 | inconclusive [activator, full curve, poor fit]
N#Cc1c(-c2ccc(F)cc2)cc(-c2ccccc2)nc1SCC(=O)NCC(=O)O | inactive
Cc1ccccc1Nc1cc2ccccc2c(=O)[nH]1 | inactive
O=C(/C=C/c1cccnc1)c1ccc(NC(=O)c2cccc(Br)c2)cc1 | inconclusive [activator, single point]
CC(=O)Nc1ccc(S(=O)(=O)n2cnc(C)c2)cc1 | inconclusive [activator, single point]
COc1cc(/C=N/Nc2ncnc3sc4c(c23)CCC4)ccc1O | inactive
CN(C)c1ccc(C(=S)N2CCN(S(=O)(=O)c3ccccc3)CC2)cc1 | inconclusive [activator, single point]
NNC(=O)c1[nH]c(-c2ccccc2)cc1-c1ccccc1 | inconclusive [activator, single point]
Oc1ccc(-c2cn3cc(C(F)(F)F)ccc3n2)cc1 | inconclusive [activator, partial curve, poor fit]
O=C(CSc1nc2ccccc2o1)N1CCOCC1 | inconclusive [activator, single point]
CCn1c2ccc(C)cc2c2nc3cc(C(=O)O)ccc3nc21 | inconclusive [activator, partial curve, poor fit]
Cc1ccc(NC(=O)c2cccc(N3C(=O)C4C5CCC(C5)C4C3=O)c2)c(C)c1 (stereo not drawn) | inconclusive [activator, partial curve, poor fit]
CC(=O)Nc1nc2ccc(-c3nc4ccccc4o3)cc2s1 | inconclusive [activator, partial curve, poor fit]
Cc1cccc(N2CCC(N=CN(C)C)=N2)c1 | inconclusive [activator, single point]
Cc1cc(C2=NNC(=NC3CC3)SC2)c(C)n1-c1c(C)n(C)n(-c2ccccc2)c1=O | inconclusive [activator, full curve, poor fit]
Cc1ccccc1-n1c(C)cc(/C=C2\NC(=O)NC2=O)c1C | inconclusive [activator, partial curve, poor fit]
